According to PMC11555673, “Modulators of the Hop-HSP90 Protein–Protein Interaction Disrupt KSHV Lytic Replication” (ACS Infectious Diseases, 2024):

Test system: HopTPR2A–HSP90CTD PPI
Test: ELISA-based solid-phase HopTPR2A–HSP90CTD PPI inhibitory assay
Type: biochemical

For “CPP-MAAVD (disulfide) [CPP-19, MAAVD containing control tethered to the Arg-8 CPP via disulfide linkage]”, the “Modulation of the HopTPR2A–HSP90CTD interaction” value (CPP peptides without DTT, 0.5, 5 and 50 μM, Figure 5A) was “stabilized the PPI in a dose-dependent fashion” and the “Modulation of the HopTPR2A–HSP90CTD interaction” value (in the presence of DTT (reductive release of the CPP), Figure 5B) was “remained inactive”.
